Reference: the supplement of paper PMC4967469
pIC50: −log10 of the molar value. By IC50 is meant the dose at which the fit gives 50% viability; a limit (>, <) means that the fit lies beyond the doses tested. The AUC spans the tested range (256-fold, ending at the top dose) of the same fit; it is 1 without any effect and falls as sensitivity rises. For some of these results: An inferred top dose was calculated from the reported fits. For some of these results: Where an entry number is given, a second screen of the drug exists; the two often differ.

How the values were obtained:
Experiment in all cases: Viability of human cancer cell lines after 72 h of drug (GDSC screen)
[1] = compound: Cc1[nH]c(/C=C2\C(=O)Nc3ccc(S(=O)(=O)Cc4c(Cl)cccc4Cl)cc32)c(C)c1C(=O)N1CCC[C@@H]1CN1CCCC1 [PHA-665752]; conditions: top dose 2 µM
Experimental: (§1)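 Human cancer cell lines in 384-well plates, medium with 10% serum, drug for 72 h over a 256-fold dose range (nine 2-fold or five 4-fold steps up to the top dose). Adherent lines were fixed and stained with the nucleic acid dye Syto60, suspension lines read with resazurin; signal relative to control wells, capped at 0 and 100%. One two-parameter sigmoid per drug and line, fitted in a mixed model over all curves with the slope shared within a line.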

[2] = compound: COCC[n+]1c2c(n(Cc3cnccn3)c1C)C(=O)c1ccccc1C2=O [YM155]; conditions: top dose 5.12 µM
Experimental: as §1

[3] = compound: CN1CCN(c2ccc([N+](=O)[O-])c3no[n+]([O-])c23)CC1 [NSC-207895]; conditions: top dose 20 µM; top dose inferred
Experimental: as §1

[4] = compound: Cc1sc2c(c1C)C(c1ccc(Cl)cc1)=N[C@@H](CC(=O)OC(C)(C)C)c1nnc(C)n1-2 [JQ1]
Experimental: as §1

[5] = compound: c1ccc2c(CCNc3ccc(Nc4ccncc4)cc3)c[nH]c2c1 [JNJ-26854165]; conditions: top dose 10 µM
Experimental: as §1

[6] = compound: C[C@]1(O)C[C@@H](c2nc(-c3ccc4ccc(-c5ccccc5)nc4c3)c3c(N)nccn32)C1 [OSI-906]; conditions: top dose 2.56 µM; top dose inferred
Experimental: as §1

[7] = compound: COC(=O)[C@H](CCSC)NC(=O)c1ccc(NC[C@@H](N)CS)cc1-c1ccccc1 [FTI-277]; conditions: top dose 1.024 µM; top dose inferred
Experimental: as §1

[8] = compound: COc1cc(N2CCC(N3CCN(C)CC3)CC2)ccc1Nc1ncc(Cl)c(Nc2ccccc2S(=O)(=O)C(C)C)n1 [NVP-TAE684]; conditions: top dose 2 µM
Experimental: as §1

[9] = compound: CC1=C2C[C@H]3[C@@H](CC=C4C[C@@H](O)CC[C@@]43C)[C@@H]2CC[C@]12O[C@@H]1C[C@H](C)CN[C@H]1[C@H]2C [Cyclopamine]; conditions: top dose 16 µM; top dose inferred
Experimental: as §1

[10] = compound: CCOc1nc(NC(=O)Cc2cc(OC)ccc2OC)cc(N)c1C#N [JNK Inhibitor VIII]; conditions: top dose 10 µM; top dose inferred
Experimental: as §1

[11] = compound: O=C(/C=C/c1cccc(S(=O)(=O)Nc2ccccc2)c1)NO [Belinostat]; conditions: top dose 20 µM; top dose inferred
Experimental: as §1

[12] = compound: CC(=O)O[C@@]12CO[C@@H]1C[C@H](O)[C@@]1(C)C(=O)[C@H](O)C3=C(C)[C@@H](OC(=O)[C@H](O)[C@@H](NC(=O)OC(C)(C)C)c4ccccc4)C[C@@](O)([C@@H](OC(=O)c4ccccc4)[C@H]21)C3(C)C [Docetaxel]; conditions: top dose 0.0125 µM
Experimental: as §1

[13] = compound: Cc1ccc(C(=O)N(CCCN)[C@@H](c2nc3cc(Cl)ccc3c(=O)n2Cc2ccccc2)C(C)C)cc1 [SB-715992]; conditions: top dose 0.128 µM; top dose inferred
Experimental: as §1

[14] = compound: CC1(C)CNc2cc(NC(=O)c3cccnc3NCc3ccncc3)ccc21 [AMG-706]; conditions: top dose 2 µM; top dose inferred
Experimental: as §1

[15] = compound: OCCCNc1cc(-c2ccnc(Nc3cccc(Cl)c3)n2)ccn1 [CGP-60474]; conditions: top dose 0.256 µM; top dose inferred
Experimental: as §1

[16] = top dose 1 µM, screen: GDSC drug entry 1218, top dose inferred
[17] = top dose 2.56 µM, screen: GDSC drug entry 163

Row | Cell Line | AUC [1] | pIC50 [1] | AUC [2] | pIC50 [2] | AUC [3] | pIC50 [3] | AUC [4, 16] | pIC50 [4, 16] | AUC [4, 17] | pIC50 [4, 17] | AUC [5] | pIC50 [5] | AUC [6] | pIC50 [6] | AUC [7] | pIC50 [7] | AUC [8] | pIC50 [8] | AUC [9] | pIC50 [9] | AUC [10] | pIC50 [10] | AUC [11] | pIC50 [11] | AUC [12] | pIC50 [12] | AUC [13] | pIC50 [13] | AUC [14] | pIC50 [14] | AUC [15] | pIC50 [15]
1 | GDM-1 (acute myeloid leukaemia, suspension) | 0.883 | 5.71 | 0.268 | 7.14 | 0.873 | 4.75 | 0.975 | < 6.00 | 0.625 | 6.46 | 0.951 | < 5.00 | 0.488 | 6.83 | 0.976 | < 5.99 | 0.379 | 7.23 | 0.956 | < 4.80 | 0.985 | < 5.00 | 0.249 | 6.61 | 0.984 | < 7.90 | 0.635 | 7.73 | 0.761 | 6.17 | 0.651 | 7.39
2 | HL-60 (acute myeloid leukaemia, suspension) | 0.99 | < 5.70 | 0.022 | > 7.70 | 0.852 | 4.89 | – | – | – | – | 0.956 | < 5.00 | 0.765 | 6.07 | 0.985 | < 5.99 | 0.732 | 6.28 | 0.99 | < 4.80 | 0.98 | < 5.00 | 0.296 | 6.45 | 0.835 | 8.15 | 0.823 | 7.19 | 0.988 | < 5.70 | 0.798 | 6.97
3 | LS-123 (large intestine, adherent) | 0.968 | < 5.70 | 0.048 | > 7.70 | 0.935 | < 4.70 | 0.972 | < 6.00 | 0.918 | < 5.59 | 0.911 | < 5.00 | 0.928 | < 5.59 | 0.976 | < 5.99 | 0.84 | < 5.70 | 0.978 | < 4.80 | – | – | 0.462 | 6.02 | 0.803 | 8.05 | 0.962 | < 6.89 | – | – | 0.716 | 7.09
4 | NB1 (neuroblastoma, semi-adherent) | 0.98 | < 5.70 | 0.346 | 6.94 | 0.87 | < 4.70 | 0.982 | < 6.00 | 0.835 | 5.71 | 0.892 | < 5.00 | 0.917 | < 5.59 | 0.971 | < 5.99 | 0.094 | > 8.11 | 0.972 | < 4.80 | 0.97 | < 5.00 | 0.816 | 4.90 | 0.798 | 8.18 | – | – | 0.963 | < 5.70 | 0.723 | 7.13
5 | NB14 (neuroblastoma, adherent) | 0.956 | < 5.70 | – | – | 0.985 | < 4.70 | 0.988 | < 6.00 | 0.612 | 6.50 | 0.824 | 5.26 | 0.769 | 6.04 | 0.983 | < 5.99 | 0.662 | 6.46 | 0.982 | < 4.80 | 0.948 | < 5.00 | – | – | 0.506 | 9.09 | 0.883 | 6.91 | 0.927 | < 5.70 | 0.922 | < 6.59
6 | NCI-H716 (large intestine, suspension) | 0.97 | < 5.70 | 0.754 | 5.67 | 0.961 | < 4.70 | 0.738 | 6.44 | 0.909 | < 5.59 | 0.932 | < 5.00 | 0.944 | < 5.59 | 0.981 | < 5.99 | 0.729 | 6.17 | 0.98 | < 4.80 | – | – | 0.587 | 5.64 | 0.982 | < 7.90 | 0.85 | < 6.89 | – | – | 0.959 | < 6.59
7 | NMC-G1 (glioma, adherent) | 0.98 | < 5.70 | 0.055 | > 7.70 | 0.927 | < 4.70 | – | – | – | – | 0.814 | 5.15 | 0.819 | 5.72 | 0.943 | < 5.99 | 0.74 | 6.14 | 0.981 | < 4.80 | 0.981 | < 5.00 | 0.525 | 5.83 | 0.472 | 9.19 | 0.895 | < 6.89 | 0.982 | < 5.70 | 0.599 | 7.50
8 | WSU-NHL (lymphoid neoplasm, suspension) | 0.99 | < 5.70 | 0.113 | 7.65 | 0.99 | < 4.70 | 0.989 | < 6.00 | 0.837 | 5.84 | 0.851 | 5.20 | 0.915 | < 5.59 | 0.986 | < 5.99 | 0.94 | < 5.70 | 0.989 | < 4.80 | 0.99 | < 5.00 | 0.414 | 6.13 | – | – | 0.865 | 7.04 | 0.99 | < 5.70 | 0.958 | < 6.59
